According to the supplement of paper PMC12217912:
This is one part of the list. The full chains were built here from the parent and the listed change. Values near 0.05 are background.

B1: TEV protease; numbered along this chain (parent)
chain: MGESLFKGPRDYNPISSSICHLTNESDGHTTSLYGIGFGPFIITNKHLFRRNNGTLVVQSLHGVFKVKDTTTLQQHLVDGRDMIIIRMPKDFPPFPQKLKFREPQREERICLVTTNFQTKSMSSMVSDTSCTFPSGDGIFWKHWIQTKDGQCGSPLVSTRDGFIVGIHSASNFTNTNNYFTSVPKNFMELLTNQEAQQWVSGWRLNADSVLWGGHKVFMVKPEEPFQPVKEATQL

Variants of: B1
Experiment: raw area under fraction-flipped curve 0-4 h after induction (AUC4h, not background-subtracted), DNA-recorder readout of cleavage of the substrate (dimensionless); higher = more cleavage of the substrate by the protease variant
Conditions: temperature: 34 °C; time window: 0-4 h after rhamnose induction
Procedure: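 In vivo DNA recorder in E. coli TOP10(DE3) ΔrhaA at 34 °C. Each TEVp single-site mutant (parent TEVp 0) is paired with a single-site variant of the 7-mer TEVs (canonical ENLYFQ|S). The substrate sits between flexible linkers in a Bxb1-sfGFP-TEVs-SsrA fusion, so cleavage stabilises Bxb1 and speeds flipping of a recombination array, read by NGS. The value is the raw area under the fraction-flipped curve over 0-4 h after rhamnose induction (AUC4h), with ≥20 reads per time point. It is not background-subtracted; inactive controls average about 0.047.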
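Also: Bxb1 expression induced with 0.2% (w/v) L-rhamnose at OD600 near 0.5, cultures sampled hourly, flipped fraction per protease–substrate barcode pair counted by paired-end Illumina sequencing.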

| Variant | area with substrate ANLYFQS | area with substrate CNLYFQS | area with substrate FNLYFQS | area with substrate HNLYFQS | area with substrate INLYFQS | area with substrate KNLYFQS | area with substrate MNLYFQS | area with substrate NNLYFQS | area with substrate PNLYFQS | area with substrate SNLYFQS | area with substrate TNLYFQS | area with substrate VNLYFQS | area with substrate WNLYFQS | area with substrate GNLYFQS | area with substrate LNLYFQS | area with substrate YNLYFQS | area with substrate RNLYFQS | area with substrate DNLYFQS | area with substrate QNLYFQS |
| --- | --- | --- | --- | --- | --- | --- | --- | --- | --- | --- | --- | --- | --- | --- | --- | --- | --- | --- | --- |
| G2E | 0.0532 | 0.0645 | 0.0559 | 0.047 | 0.0754 | 0.0673 | 0.109 | 0.0648 | 0.0662 | 0.0707 | 0.0621 | 0.0815 | 0.0734 |  |  |  |  |  |  |
| E3S | 0.075 | 0.0736 |  | 0.0805 | 0.0677 | 0.0744 |  | 0.0731 |  | 0.0748 | 0.068 |  | 0.0572 | 0.0721 | 0.0596 | 0.0557 |  |  |  |
| K7Q | 0.0642 | 0.0645 | 0.0618 | 0.0715 | 0.0528 | 0.0517 | 0.0672 |  |  | 0.0674 | 0.069 | 0.0745 | 0.0595 | 0.0832 |  |  |  |  |  |
| P9G | 0.061 | 0.0715 | 0.057 | 0.0522 | 0.0635 | 0.0567 | 0.0609 | 0.0648 | 0.0689 | 0.0824 | 0.0707 |  | 0.0607 | 0.0667 | 0.0649 |  | 0.0835 |  |  |
| P9M | 0.0647 | 0.0783 |  | 0.0705 |  | 0.0808 | 0.0661 | 0.0749 | 0.0713 | 0.0699 | 0.0712 |  | 0.0438 | 0.0697 | 0.0513 | 0.0497 | 0.0723 |  |  |
| P9V | 0.0725 |  |  | 0.0633 |  |  | 0.069 |  | 0.0637 | 0.0735 |  |  | 0.0611 | 0.0508 | 0.0628 | 0.0741 |  | 0.0668 |  |
| P9W | 0.0631 | 0.0641 | 0.073 | 0.0656 | 0.0673 | 0.0665 | 0.0741 |  |  | 0.0898 | 0.0713 | 0.0647 | 0.0653 | 0.0615 |  |  | 0.0897 |  |  |
| R10N | 0.0586 | 0.0574 |  | 0.062 | 0.068 | 0.0748 | 0.0743 | 0.0735 | 0.0675 |  | 0.0635 |  | 0.0648 |  |  | 0.0643 |  | 0.0773 |  |
| D11M | 0.0523 | 0.059 | 0.0671 | 0.0439 | 0.0551 | 0.0666 | 0.0612 | 0.0707 | 0.0682 | 0.0612 | 0.0547 |  | 0.059 | 0.0605 | 0.0539 | 0.0635 |  |  |  |
| Y12D | 0.0212 | 0.0521 | 0.0551 | 0.0659 |  | 0.071 | 0.07 | 0.0621 | 0.0633 | 0.0731 | 0.0669 | 0.0639 | 0.0542 |  | 0.0639 | 0.0478 |  |  | 0.0677 |
| Y12E | 0.0664 | 0.0721 | 0.0733 | 0.0698 | 0.0373 | 0.0791 | 0.0666 |  | 0.0634 | 0.0752 | 0.0679 | 0.078 | 0.0586 | 0.0647 | 0.0605 |  |  |  | 0.0712 |
| N13A | 0.0654 | 0.0735 | 0.0632 | 0.0537 |  | 0.0654 | 0.0602 | 0.0738 | 0.0707 | 0.0541 | 0.0717 | 0.0705 | 0.062 | 0.0669 | 0.0752 | 0.0775 |  |  | 0.0676 |
| N13D | 0.0607 |  | 0.053 | 0.0613 | 0.0697 | 0.0663 |  | 0.0608 | 0.0689 | 0.0722 | 0.0694 | 0.0621 | 0.0611 | 0.0619 | 0.0678 | 0.0604 | 0.0437 | 0.0895 |  |
| P14R | 0.0753 | 0.0642 |  | 0.0664 | 0.0626 | 0.078 | 0.0038 |  |  | 0.0733 | 0.0693 |  | 0.0539 | 0.0179 | 0.074 |  |  |  | 0.0707 |
| P14S | 0.0602 | 0.0766 | 0.049 | 0.0608 | 0.0574 | 0.0629 | 0.066 | 0.0781 | 0.0663 | 0.0594 | 0.0653 | 0.0639 | 0.0621 | 0.065 | 0.0628 | 0.0565 |  |  |  |
| I15A | 0.0762 | 0.0614 | 0.0605 |  | 0.0547 | 0.0744 |  | 0.0861 | 0.0696 | 0.0611 | 0.0501 |  | 0.057 |  | 0.0558 | 0.0441 | 0.0472 |  |  |
| I15W | 0.064 | 0.0642 |  | 0.0611 |  | 0.071 | 0.068 | 0.0526 | 0.0635 | 0.0596 | 0.0529 |  | 0.0623 | 0.0744 | 0.0695 | 0.0596 | 0.0396 |  | 0.074 |
| I15Y | 0.0566 |  | 0.0674 | 0.0575 | 0.0558 | 0.064 | 0.0458 |  | 0.0516 | 0.0635 |  |  | 0.0568 | 0.0584 | 0.0549 | 0.0501 |  | 0.0772 |  |
| S16W | 0.0588 |  | 0.0684 | 0.0706 | 0.0392 |  | 0.0694 | 0.075 | 0.0695 | 0.0464 | 0.0594 | 0.0891 | 0.0584 | 0.0597 | 0.064 |  |  |  | 0.0791 |
| S17E | 0.0874 | 0.0662 | 0.0505 | 0.0591 | 0.0667 | 0.0664 |  | 0.0691 | 0.0608 | 0.0633 | 0.0556 | 0.0645 | 0.055 | 0.0569 | 0.0566 | 0.0659 | 0.0619 |  | 0.0519 |
| S17H | 0.0851 | 0.0819 | 0.0677 | 0.0596 | 0.0819 | 0.075 | 0.0845 | 0.0663 | 0.0467 | 0.0677 | 0.0831 | 0.0874 | 0.0607 | 0.0574 | 0.0654 | 0.0618 |  |  | 0.0593 |
| S17K | 0.057 |  | 0.068 | 0.065 |  | 0.0656 | 0.0768 | 0.0583 | 0.0799 | 0.0694 | 0.0599 | 0.0742 | 0.0578 | 0.084 | 0.0609 | 0.0681 |  | 0.106 | 0.0827 |
| S17L | 0.102 | 0.101 | 0.0651 | 0.0807 | 0.0675 | 0.0747 | 0.064 | 0.0569 | 0.0696 | 0.0664 | 0.0656 | 0.0702 | 0.06 | 0.0768 | 0.0586 | 0.0601 |  |  | 0.0686 |
| S17M | 0.0506 | 0.0731 | 0.0523 | 0.0743 | 0.0879 | 0.0701 | 0.0614 |  | 0.0646 | 0.06 | 0.0541 | 0.0662 | 0.0589 | 0.0642 | 0.0618 | 0.0634 | 0.0665 |  | 0.0794 |
